Experimental data taken from PubChem BioAssay AID1508642 (National Center for Advancing Translational Sciences (NCATS), 2021).
About 200 (0.47%) of roughly 43,000 compounds were called active. Another 12% or so got no clear call; they are omitted. The call rests on the fitted dose curve; in most records, active means well fitted cell-killing curve with a large enough effect; inconclusive means small, poorly fitted or top-dose-only effect, or effect the other way; inactive means flat fitted curve, though single readings scatter. The list shows a part of the results.

Test: Cell viability qHTS assay in S16 Pmp22-F2sN cells; further: nearly all actives have a fitted effect of over 65% in size
Settings: S16 Pmp22-F2sN Schwann cells (luciferase reporters placed in the Pmp22 gene) viability, CellTiter-Glo, 24 h; series mostly up to 57.5 µM; activity change, negative = cytotoxicity: at the top concentration
Outline: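 Rat S16 Schwann reporter line, 24 h treatment with library compounds delivered at 23 nL per well. Cell viability by CellTiter-Glo luminescence.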
On the % scale 0 is the no-effect control and ±100 the full control effect.

| Structure (SMILES) | activity change, negative = cytotoxicity |
| --- | --- |
| CCc1ccc(OCC(=O)Nc2c(C(=O)c3ccccc3)oc3ccccc23)cc1 | inactive: -1.53% |
| Cc1nc(-c2cccc(S(=O)(=O)N3CCC(C(=O)NCc4ccccc4)CC3)c2)no1 | inactive: -13.2% |
| Cc1cc(=O)n2nc(N3CCC(C(=O)NCc4ccccc4Cl)CC3)sc2n1 | inactive: 15.4% |
| COc1ccc(OC)c(S(=O)(=O)Nc2ccc3[nH]c(=O)[nH]c3c2)c1 | inactive: -17.7% |
| Cc1cccc(CN2C(=O)c3ccccc3S(=O)(=O)c3ccc(C(=O)N4CCCC4)cc32)c1 | inactive: -0.563% |
| COc1ccc(NS(=O)(=O)c2ccc3c(c2)oc(=O)n3C)cc1Cl | inactive: -16.6% |
| COc1cccc(NC(=O)c2nnn(Cc3cccc(C(F)(F)F)c3)c2N)c1 | inactive: 0.0977% |
| Cc1ccc2nc(Cl)c3cc(C(=O)NC4CCCCC4)sc3c2c1 | inactive: 3.82% |
| COc1ccc(OC)c(NC(=O)C(NS(=O)(=O)c2ccc3c(c2)CCCC(=O)N3)C(C)C)c1 (centres undefined) | inactive: -6.81% |
| COc1ccc(C(=O)Nc2nc3nc(C)c(Cl)c(=O)n3[nH]2)cc1 | inactive: 9.31% |
| Cc1ccc(-c2cnc(NCc3c(F)cccc3Cl)n2C)cc1 | inactive: -18.4% |
| CCOc1ccc(NC(=O)Cn2c(=O)c(CNc3ccc(OC)cc3)cc3ccc(OC)cc32)cc1 | inactive: 9.38% |
| CCOC(=O)c1cc(S(=O)(=O)N2CCN(c3cc(Cl)ccc3C)CC2)[nH]n1 | inactive: -2.17% |
| CN1CCc2nc3sc(C(=O)Nc4c(F)cccc4F)c(N)c3cc2C1 | inactive: -0.579% |
| CCc1ccc(S(=O)(=O)N(C(C)=O)c2ccc3oc4c(c3c2)CCCC4)cc1 | inactive: -27.5% |
| CCOc1ccc(C(=O)Nc2ccc3c(c2)N(C(C)=O)CCC3)cc1OCC | inactive: -26.5% |
| COc1ccc(NS(=O)(=O)c2ccc3c(c2)NC(=O)CCS3)c(OC)c1 | inactive: 4.49% |
| CCOc1ccc(C2c3c(oc4cc(C)c(C)cc4c3=O)C(=O)N2c2ccccn2)cc1 (centres undefined) | inactive: 3.86% |
| CCC(C(=O)Nc1cc(C)ccc1OC)n1nnc(C(=O)OC)c1C(=O)OC (centres undefined) | inactive: -21.1% |
| COc1ccccc1N1CCN(S(=O)(=O)c2ccc(-n3cnnn3)cc2)CC1 | inactive: -5.57% |
| CCOC(=O)N1CCc2c(sc3c2c(=O)n(-c2ccc(CC)cc2)c(=O)n3Cc2cccc(OC)c2)C1 | inactive: 18.8% |
| CN(C)c1ccc(CN(Cc2ccco2)C(=O)c2ccc(F)cc2)cc1 | inactive: 5.5% |
| COc1ccccc1CNC(=O)CCC(=O)N1Cc2ccccc2Oc2ncccc21 | inactive: 2.45% |
| Cc1ccc(-n2nc3c(N4CCC(C(=O)N(C)Cc5ccccc5)CC4)nnc(C)c3c2C)cc1 | inactive: -8% |

| Structure (SMILES) | activity change, negative = cytotoxicity |
| --- | --- |
| Cc1ccc(C)c(S(=O)(=O)n2nc(C)c(S(=O)(=O)N3CCC(C)CC3)c2C)c1 | inactive: 21.2% |
| CC(=O)Nc1ccc(S(=O)(=O)Nc2nc3n(n2)C(c2ccccc2)C=C(c2ccc(Cl)cc2)N3)cc1 (centres undefined) | inactive: 5.25% |
| COc1cc(Cl)c(C)cc1Nc1nnc(-n2nc(C)cc2C)c2ccccc12 | inactive: 2.59% |
| COc1cccc(NC(=O)C2CCCN2S(=O)(=O)c2ccc3nc(-c4ccccc4)[nH]c3c2)c1 (centres undefined) | inactive: 19.2% |
| COc1ccc(OCc2nc(C#N)c(NCc3ccccc3Cl)o2)cc1 | inactive: 19.5% |
| COc1cccc(N2CCN(C(=O)c3c4c(nc5ccccc35)C(=O)N(C3CCCCC3)C4)CC2)c1 | inactive: -5.9% |
| Cc1cc(SCC(=O)Nc2nsc(-c3ccc(C(C)(C)C)cc3)n2)nc2ccccc12 | inactive: 0.448% |
| CCCOc1ccc(-c2cccc(NS(=O)(=O)c3ccc(CC)cc3)c2)nn1 | inactive: -22.4% |
| COc1ccc(NC(=O)CN2CCN(c3ccccc3F)CC2)c(OC)c1 | inactive: 9.77% |
| COc1ccc(C(=O)N2CCN(C(=O)COc3ccc(C)cc3)CC2)cc1OC | inactive: -8.4% |
| O=C(Cn1cc(S(=O)(=O)N2CCN(c3ccccc3F)CC2)c2ccccc2c1=O)Nc1ccc(F)cc1Cl | inactive: -3.91% |
| COc1cc2c(C(=O)N3CCN(c4cc(Cl)ccc4C)CC3)cn(CC(C)C)c(=O)c2cc1OC | inactive: 10% |
| COc1ccc(S(=O)(=O)NCCc2sc(-c3cccc(F)c3)nc2C)cc1 | inactive: -4.08% |
| O=C(Nc1ccccc1F)C(Cc1ccccc1)N1Cc2ccccc2C1=O (centres undefined) | inactive: 9.43% |
| CC(C)c1ccc(NC(=O)c2ccc(F)c(S(=O)(=O)N3CCN(c4ccccc4F)CC3)c2)cc1 | inactive: -4.44% |
| Cc1ccc(-c2nn3c(=O)cc(CN4CCN(C(=O)c5ccc(C(C)(C)C)cc5)CC4)nc3s2)cc1 | inactive: 15.8% |
| CCc1ccc(S(=O)(=O)n2ccnc2)cc1 | inactive: 7.89% |
| COCCn1c(=NC(=O)c2ccc3c(c2)OCCO3)sc2cc(NC(C)=O)ccc21 | inactive: 0.808% |
| O=C(Nc1ccc(F)cc1F)N1CCc2c(sc3c2CCCC3)C1c1ccc(F)cc1 (centres undefined) | inactive: -2.14% |
| COc1cc(NS(=O)(=O)c2ccc(NC(=O)c3ccc(OC)c(Br)c3)cc2)nc(OC)n1 | inactive: -6.16% |
| Cc1ccc(NC(=O)CSc2nccn2Cc2ccc3c(c2)OCO3)c(C)c1 | inactive: -1.64% |
| Cc1cc(C)c(NC(=O)CN(C)S(=O)(=O)c2ccc3c(c2)c(=O)n(C)c(=O)n3C)c(C)c1 | inactive: 2.29% |
| CCC(C)NC(=O)CCC(=O)NNc1nc2ccccc2c2nc(C)nn12 (centres undefined) | inactive: 16.3% |
| Cc1ccc(C)c(N2CCN(C(=O)C3CCCN(S(=O)(=O)c4cccc5nonc45)C3)CC2)c1 (centres undefined) | inactive: -24.5% |

| Structure (SMILES) | activity change, negative = cytotoxicity |
| --- | --- |
| CCOCCc1nn2c(=O)cc(COC(=O)c3cccc(C)c3)nc2s1 | inactive: 7.04% |
| Cc1ccc(-c2cc(C(=O)Nc3c(C(=O)c4ccc(C)c(F)c4)oc4ccccc34)no2)cc1 | inactive: 4.21% |
| CCOC(=O)c1c(NC(=O)CSc2cn(CCNC(=O)c3c(F)cccc3F)c3ccccc23)sc2c1CCCC2 | inactive: 3.4% |
| Cn1c(=O)c2c(n3c4ccccc4nc13)NC(=O)CC2c1cccc(Cl)c1 (centres undefined) | inactive: -18.2% |
| COC(=O)c1sccc1S(=O)(=O)N1CCN(c2ccc(C(C)=O)cc2)CC1 | inactive: 6.73% |
| COc1ccc(Cl)cc1NC(=O)Cn1nnc(C(=O)NCc2ccc3c(c2)OCO3)c1N | inactive: 6.89% |
| CCN(CC)CCOC(=O)c1ccc(NC(=O)c2cc3cccc(OC)c3oc2=O)cc1 | inactive: 0.527% |
| COc1ccc(S(=O)(=O)NCCc2sc(-c3ccccc3)nc2C)cc1F | inactive: -0.958% |
| CC(=O)c1ccc(NC(=O)c2cc(C3CC3)nc3c2c(C)nn3-c2ccc(C)cc2)cc1 | inactive: 26.8% |
| COc1ccccc1CN(Cc1ccco1)c1cnc(S(C)(=O)=O)nc1C(=O)Nc1ccccc1Cl | inactive: -0.216% |
| CCOc1ccc(CCNC(=O)CCCc2nnc3n(C)c(=O)c4sccc4n23)cc1OCC | inactive: 7.13% |
| Cc1c(C(=O)OC2CCC(C)CC2)[nH]c2c1C(=O)CC(c1ccccc1Cl)C2 (centres undefined) | inactive: -27.8% |
| COc1ccc(OCC(=O)Nc2nc(-c3ccc(Br)cc3)ns2)cc1 | inactive: -4.14% |
| COc1ccc(NC(=O)NCc2c(-n3cccc3)sc3c2CCCC3)c(OC)c1 | inactive: 2.88% |
| CCNc1nc(NC(C)CC)nc(Oc2ccc(OCC)nn2)n1 (centres undefined) | inactive: -5.51% |
| CCc1cccc(C)c1NC(=O)NC1COc2ccccc2C1 (centres undefined) | inactive: -1.76% |
| O=C(Nc1ccc(Cl)cc1)c1cc(S(=O)(=O)N2CCCc3ccccc32)ccc1F | inactive: -24.2% |
| CCOC(=O)c1noc2ncn(Cc3cccc(C#N)c3)c(=O)c12 | inactive: 1.01% |
| O=C(CCCn1c(=O)[nH]c2ccsc2c1=O)N1CCN(c2cccc(C(F)(F)F)c2)CC1 | inactive: -10.7% |
| Cc1cc(Cl)ccc1NC(=O)CN1C(=O)COc2ccc(S(=O)(=O)N3CCC(C)CC3)cc21 | inactive: 7.03% |
| COc1ccc(NCc2cc3cc4c(cc3n(CC(=O)Nc3ccccc3)c2=O)OCO4)cc1 | inactive: -0.844% |
| COc1ccc(NC(=O)CSc2nc(-c3ccc(OC)c(OC)c3)[nH]c2-c2ccc(C)cc2)cc1 | inactive: -2.73% |
| COc1cccc(CNC(=O)Cn2nc3c(cc2=O)CCCC3)c1OC | inactive: 4.29% |
| Cc1ccc(C2c3c(-c4ccccc4O)n[nH]c3C(=O)N2CCc2ccccc2)cc1 (centres undefined) | inactive: -25.2% |

| Structure (SMILES) | activity change, negative = cytotoxicity |
| --- | --- |
| CC1CCCN(C(=O)CCS(=O)(=O)c2cc3c(cc2Cl)NC(=O)CO3)C1 (centres undefined) | inactive: 0.0764% |
| CCOc1ccc(CNC(=O)Cn2cc3c(n2)-c2c(oc(C(=O)N4CCCC4)c2C)CC3)cc1 | inactive: -17.8% |
| CCCC1=Nc2cc(C(=O)NCC(C)c3ccccc3)ccc2Sc2ccccc21 (centres undefined) | inactive: -5.13% |
| CCOC(=O)Cn1c(=O)oc2cc(S(=O)(=O)N3CCCC(C)C3)ccc21 (centres undefined) | inactive: -2.79% |
| CCCCn1cc(S(=O)(=O)c2ccc(Cl)cc2)c(=O)c2cc(F)c(N3CCCC(C)C3)cc21 (centres undefined) | inactive: -14.8% |
| CCOC(=O)c1cc(S(=O)(=O)N2CCN(c3cccc(OC)c3)CC2)[nH]n1 | inactive: 1.34% |
| CCc1cnc2c(c1SCC(=O)Nc1ccc(OC)c(OC)c1)c(=O)n(C)c(=O)n2C | inactive: 5.11% |
| CCCCOC(=O)Cn1nnc2sc(-c3ccccc3)cc2c1=O | inactive: 7.62% |
| COc1ccc(CCNC(=O)CSc2cn(CCNC(=O)c3ccccc3F)c3ccccc23)cc1OC | inactive: -0.66% |
| CN1CCN(C(=O)C(=O)Nc2c3c(nn2-c2cccc(Cl)c2)CSC3)CC1 | inactive: 13.7% |
| O=C(CCCCn1c(=O)c2ccccc2n(CC(=O)Nc2ccc(F)cc2F)c1=O)NCc1ccccc1Cl | inactive: 18.1% |
| O=C(CSc1ncc(-c2ccccc2)[nH]1)Nc1ccc(F)cc1F | inactive: 3.6% |
| COc1ccc(Nc2cc(C(=O)NCc3cccs3)c3ccccc3n2)cc1 | inactive: 17.9% |
| CCOC(=O)c1c(C)[nH]c(C)c1S(=O)(=O)N1CCCC(C(=O)NCc2ccc(C)cc2)C1 (centres undefined) | inactive: -4.54% |
| Cc1ccc(Cn2c(=O)n(CCc3ccccc3)c(=O)c3c(C)c(C)sc32)cc1 | inactive: -16.6% |
| CCc1ccccc1N1C(=O)N(CC(=O)c2ccc(Cl)cc2)c2ccccc2S1(=O)=O | inactive: 1.26% |
| Cc1cc(C)c(NC(=O)c2cc(S(=O)(=O)NCCC3=CCCCC3)ccc2F)c(C)c1 | inactive: -2.42% |
| Cc1ccc(-n2ncc(C(=O)NCCN3CCCC3)c2C2CCN(C(=O)OC(C)(C)C)CC2)cc1 | inactive: -2.64% |
| Cc1cc(C)n(-c2nc3cc(Cl)ccc3nc2Nc2ccc(C)c(F)c2)n1 | inactive: 3.2% |
| Cc1ccc(NC(=O)Cn2nnc3sc4c(c3c2=O)CCC(C)C4)cc1 (centres undefined) | inactive: 10.1% |
| COc1ccc(Cn2c(CCC(=O)Nc3ccc(C)cc3)nc3cccnc32)cc1 | inactive: 1.67% |
| CCOc1ccccc1NC(=O)N1c2ccccc2Sc2ccccc21 | inactive: -14.9% |
